Consider 95 compounds from PubChem BioAssay AID1159614 (National Center for Advancing Translational Sciences (NCATS), 2016).

In all, about 45,000 compounds went through this assay and about 65 (0.1%) were called active. Calls come from the whole dose curve; as a rule, active = well fitted activation curve with a large enough effect; inconclusive = small, poorly fitted or top-dose-only effect; inactive = no such curve, though single readings can be large or run the other way. Some of the results follow.

Chain of UniProt P54803 (P54803 whole entry, looked up): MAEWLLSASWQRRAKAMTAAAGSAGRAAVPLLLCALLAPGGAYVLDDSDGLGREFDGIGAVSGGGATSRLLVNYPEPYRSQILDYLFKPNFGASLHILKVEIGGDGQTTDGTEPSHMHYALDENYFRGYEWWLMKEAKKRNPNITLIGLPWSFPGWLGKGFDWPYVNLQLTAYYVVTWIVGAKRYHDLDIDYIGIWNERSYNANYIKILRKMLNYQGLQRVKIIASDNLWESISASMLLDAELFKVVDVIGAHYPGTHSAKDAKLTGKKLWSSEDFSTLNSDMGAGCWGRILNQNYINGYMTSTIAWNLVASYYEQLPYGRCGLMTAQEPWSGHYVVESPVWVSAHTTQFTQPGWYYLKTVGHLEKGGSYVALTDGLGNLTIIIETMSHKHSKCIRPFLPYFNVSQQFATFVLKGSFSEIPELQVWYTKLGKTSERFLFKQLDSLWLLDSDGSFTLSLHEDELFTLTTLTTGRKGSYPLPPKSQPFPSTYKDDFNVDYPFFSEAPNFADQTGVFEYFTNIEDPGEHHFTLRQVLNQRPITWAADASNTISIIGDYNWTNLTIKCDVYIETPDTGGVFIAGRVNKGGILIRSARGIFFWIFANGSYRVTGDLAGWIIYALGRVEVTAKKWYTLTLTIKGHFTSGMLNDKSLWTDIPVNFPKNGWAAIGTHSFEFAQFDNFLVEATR

This assay deals with Galactocerebrosidase (Homo sapiens) (UniProt P54803). Briefly: A Novel Cell-Based Assay to Identify Small Molecules for B -Galactocerebrosidase. Note: 0% is about no effect; nearly all actives have a fitted effect of over 65% in size. Particulars: 145M-Twi-hGALC-G270D cells, HMU-beta-Gal fluorescence, 48 h; series mostly up to 57.5 µM; activation: at the top concentration. An outline of the steps:
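qHTS, 1536-well; 145M-Twi-hGALC-G270D cells (WT line also made) in DMEM/F12 + 10% FBS; compound incubation on live cells; HMU-β-gal 0.1 mM final, pH 5.2, NaTC; carbonate stop; fluorescence increase = enhanced residual activity.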
Consider `CCc1ccc(C2Sc3ccccc3NC3=C2C(=O)c2ccccc23)cc1` (stereo not given), for which the “activation” value is inactive: -10.1%.

For `COc1ccc(NC(=O)c2sc3nc4c(cc3c2N)CN(Cc2ccccc2)CC4)cc1`, the “activation” value was inactive: -28%.

For the compound `CCC(C(=O)NC1CCCCC1)n1c(SCc2ccc(F)cc2)nc2ccncc21` (stereo not given), the “activation” value was inactive: -21.2%. Take `Nc1nc(N)c2nc(-c3ccccc3)c(N)nc2n1`: the “activation” value was inactive: -15.3%.

As to `CC(C)CCNC(=O)c1ccc2c(c1)N(Cc1cccc(Cl)c1)C(=O)c1ccccc1S2`, the “activation” value is inactive: -6.4%. The same measure for `CCCC(=O)n1nc(-c2ccco2)nc1NCc1ccccc1Cl`: inactive: -10.8%; for `O=C(Nc1nnc(S(=O)(=O)N2CCOCC2)s1)c1ccccc1Cl`: inactive: -19.9%; for `Cc1cc2nn(-c3ccc(F)cc3)nc2cc1NC(=O)c1cccc2ccccc12`: inactive: -9.7%.

With `O=C(Nc1ccc(F)c(Cl)c1)c1cc(S(=O)(=O)N2CCc3ccccc3C2)ccc1F`, the “activation” value was inactive: -2.5%. As to `O=C(Nc1ccc2nc(SCc3ccccc3)sc2c1)c1ccccc1F`, the “activation” value is inactive: -9.32%. For `O=C(Nc1ccc2oc(-c3cccnc3)nc2c1)c1ccc(-c2ccc(OC(F)(F)F)cc2)o1`, the “activation” value is inactive: -13.5%. On to `COc1ccc(N2CCN(C(=O)CN3C(=O)CSc4c3c(C)nn4-c3ccccc3)CC2)cc1`, for which the “activation” value was inactive: -13.3%.

With `Cc1ccc(OCC(=O)Nc2ccc3c(c2)nc(CCNC(=O)c2ccco2)n3C)cc1`, the “activation” value is inactive: -15.3%. As to `COc1ccc(OC)c(CCNC(=O)c2cc3c(=O)oc4ccc(C)cc4c3s2)c1`, the “activation” value was inactive: -27.8%. As for `CC(=O)Nc1ccc(NC(=O)C2CCCN2S(=O)(=O)c2ccc3c(c2)CCCC(=O)N3)cc1` (stereo not given), the “activation” value is inactive: -4.17%.

As to `CCn1c(=O)c(=O)n(CC)c2cc(N3CCCCC3)c(NC(=O)c3ccc(Cl)cc3)cc21`, the “activation” value was inactive: -18.3%.

In the case of `COc1ccc(CNC(=O)CN2N=C(c3ccccc3)CCC2=O)c(OC)c1`, the “activation” value was inactive: -7.96%. `COCCCNc1nc2cc(OC)c(OC)cc2c2nc(-c3ccccc3)nn12`: the “activation” value is inactive: 6.54%. In the case of `Cc1ccccc1N1CC(C(=O)Nc2ccc(Br)cc2)CC1=O` (stereo not given), the “activation” value is inactive: -16%. Regarding `COc1ccc(C(=O)NCc2nnc(SCC(=O)Nc3ccccc3)n2-c2ccccc2)cc1`, the “activation” value was inactive: -16%. Next, `Cc1ccc(-n2nnc(-c3nsc(NC(=O)c4cccc(Cl)c4)n3)c2C)cc1C`: inactive: -21.4%. Next, `O=C(CSc1n[nH]c(-c2ccccc2)n1)NCCCc1ccccc1`: inactive: -0.824%. On to `COc1cc(Cl)c(C)cc1NC(=O)c1ccc2c(SCC(=O)O)c3c(nc2c1)CCCC3`, for which the “activation” value was inactive: -16.8%. As for `Cc1nnc(N2CCCC(C(=O)NCc3ccccc3F)C2)c2nn(-c3ccc(Cl)cc3)c(C)c12` (stereo not given), the “activation” value was inactive: -13.3%. In the case of `COc1ccc(NC(=O)CCSc2nc(-c3ccco3)cc(C(F)(F)F)n2)cc1`, the “activation” value was inactive: -6.22%. For the compound `Cc1ccc(C)c(Nc2ncnc3onc(C)c23)c1`, the “activation” value was inactive: -4.55%. With `COc1ccc(NC(=O)CSc2ncccc2C(=O)O)cc1OC`, the “activation” value is inactive: -13.5%.

For `COc1ccc(-c2nc3cc(C(C)C)ccc3o2)cc1NC(=O)COc1ccc(C)cc1C`, the “activation” value was inactive: -2.68%. Next, `CCN(CC)CCNC(=O)c1ccc2c(c1)NC(=O)C(CS(=O)(=O)Cc1cccc(Br)c1)N2` (stereo not given): inactive: 16%. Turning to `O=C(Cn1c(=O)c2ccccc2n(CC(=O)Nc2ccc(F)cc2F)c1=O)NCCc1ccccc1`, the “activation” value is inactive: -15.2%. Next, `CCN(C(=O)c1cc2c(=O)oc3ccc(C)cc3c2s1)c1cc(OC)ccc1OC`: inactive: -7.43%; `CCc1ccc(OCCCn2c(-c3ccc(Cl)cc3)nc3ccccc3c2=O)cc1`: inactive: -5.08%. For `Cc1ccc(-c2nc3scc(CCNS(=O)(=O)c4ccc(F)c(C)c4)n3n2)cc1`, the “activation” value was inactive: 3.28%.

Turning to `CCn1nc(C)c2c(-c3ccccc3)cc(=O)n(C(C)C(=O)NCc3cccc(OC)c3)c21` (stereo not given), the “activation” value was inactive: -17%.

For `CCC1CCCCN1CCCNC(=O)c1ccc2c(c1)N(Cc1ccccc1)C(=O)c1ccccc1S2(=O)=O` (stereo not given), the “activation” value was inactive: 2.58%.

Take `CCOc1cccc(CC(=O)N2CCc3c([nH]c4ccccc34)C2c2ccccc2)c1OCC` (stereo not given): the “activation” value is inactive: -9.58%. Next, `CCN(CC)c1ccc(CN(C(=O)Cc2coc3ccc(C)cc23)C2CCS(=O)(=O)C2)cc1` (stereo not given): inactive: -25.5%; `COc1ccc(C(=O)Nc2cc(C(C)C)c(O)c(S(=O)(=O)c3ccc(Cl)cc3)c2C)cc1`: inactive: -2.09%; `CCN(Cc1ccccc1)Cc1c(O)ccc2c(=O)c(-c3ccccc3)c(C(F)(F)F)oc12`: inactive: -18.6%.

On to `CCOc1ccccc1CNCc1c(C(=O)O)c(C)n(Cc2ccc(Cl)cc2)c1C`, for which the “activation” value is inactive: -5.73%. Consider `c1ccc(-c2nnc(CN3CCN(c4ccccn4)CC3)o2)cc1`, for which the “activation” value was inactive: -8.94%. Regarding `Cc1ccc(Cl)cc1NC(=O)CSc1ccc(C(=O)O)cn1`, the “activation” value is inactive: -9.82%.

On to `CCN(CC)c1ccc(NC(=O)c2cc(C)nc3c2c(C)nn3-c2cccc(F)c2)c(C)c1`, for which the “activation” value was inactive: -2.37%. `CCC1CN(C(=O)N2CCC(C(=O)NCCc3ccccc3C)CC2)c2ccccc2O1` (stereo not given): the “activation” value is inactive: -1.4%.

For the compound `O=C1CC(c2ccccc2)Sc2nc(-c3ccc(F)cc3)nn21` (stereo not given), the “activation” value was inactive: -15.2%.

Turning to `O=C(c1[nH]c2ccccc2c1Sc1ccc(Cl)cc1)N1CCCCC1`, the “activation” value is inactive: -23.3%. On to `Cc1ccc(OCC(=O)OCc2cc(=O)n3nc(C4CCCCC4)sc3n2)cc1C`, for which the “activation” value was inactive: -8.29%. The same measure for `Cc1ccccc1NC(=O)Cn1c(=O)n(CC2CCC(C(=O)NCCc3ccccc3)CC2)c(=O)c2ccccc21` (stereo not given): inactive: -1.64%; for `CCOc1ccccc1C(=O)Nc1nc2c(s1)CC(C)CC2` (stereo not given): inactive: -8.88%. As for `COc1ccc(Cl)cc1NC(=O)Cn1c(=O)n(CCC(=O)NCc2ccc3c(c2)OCO3)c(=O)c2ccccc21`, the “activation” value was inactive: -7.97%.

As for `Cc1ccc(N2C(=O)[C@@H]3CSC(c4ccc(F)cc4)N3C2=O)cc1` (stereo not given in full), the “activation” value was inactive: -2.37%.

Turning to `Nc1c(C(=O)Nc2ccccc2)nnn1Cc1ccc(F)cc1Cl`, the “activation” value is inactive: -18.8%.

`Cc1ccc(CNS(=O)(=O)c2ccc(-c3cc(C(F)(F)F)on3)s2)cc1`: the “activation” value is inactive: -9.87%. In the case of `COc1cccc(-n2c(SCC(=O)c3ccc(Cl)cc3)nc3c([nH]c4ccccc43)c2=O)c1`, the “activation” value was inactive: -18.5%. In the case of `CSc1ccc(CNC(=O)c2ccc(NC(=O)c3nsc4ccccc34)cc2)cc1`, the “activation” value was inactive: -24.8%. Regarding `O=C(NCc1ccccc1Cl)NCc1noc2ccccc12`, the “activation” value was inactive: -17.4%. As to `COC(=O)Cn1c(=O)c2c(nc3n2CCN3c2ccc(F)cc2)n(C)c1=O`, the “activation” value is inactive: 3.73%. The same measure for `Cc1nn(C(C)(C)C)c(OC(=O)C(C)(C)C)c1Sc1ccccc1`: inactive: -6.54%. Consider `Cc1ccc(C(=O)Nc2cc3c(cc2N2CCCC2)n(C)c(=O)c(=O)n3C)cc1`, for which the “activation” value is inactive: -3.9%.

Consider `COc1cc(NC(=O)COCc2cc(-c3ccc(F)cc3)on2)cc(OC)c1OC`, for which the “activation” value was inactive: -19.2%.

With `O=C(Nc1ccc(Cl)c(-c2nc3cc(Cl)ccc3o2)c1)c1cc([N+](=O)[O-])ccc1N1CCOCC1`, the “activation” value is inactive: -18.7%. With `COc1cccc(NC(=O)C2CCCN(S(=O)(=O)c3ccc4[nH]c(=O)ccc4c3)C2)c1` (stereo not given), the “activation” value is inactive: -9.18%. For `COc1ccccc1N1CCN(c2nc(-c3ccc(C)cc3)nc3ccccc23)CC1`, the “activation” value was inactive: -7.9%. `CC(C)(C)NC(=O)[C@H]1CC[C@H]2[C@@H]3CC[C@H]4NC(=O)C=C[C@]4(C)[C@H]3CC[C@]12C`: the “activation” value is inactive: -13.3%.

Regarding `Cn1cc(C(=O)N2CCN(c3cccc(C(F)(F)F)c3)CC2)c2c3ccccc3n(C)c2c1=O`, the “activation” value was inactive: -13.2%. In the case of `O=C(O)CCn1cnc2onc(-c3cc(F)cc(F)c3)c2c1=O`, the “activation” value is inactive: 7.47%. Next, `CCCOc1ccc(Oc2nc(NCC(C)C)nc(N3CCOCC3)n2)nn1`: inactive: -7.68%; `CCOc1ccc(-c2cc3c(=O)n(CC(=O)NCc4ccc(Cl)cc4)ccn3n2)cc1`: inactive: -3.88%.

Consider `CC(=O)Nc1ccc(NC(=O)Cn2nc(C(=O)Nc3ccc(C)cc3)ccc2=O)cc1`, for which the “activation” value is inactive: -17.1%. On to `Cc1ccc(-n2c(SCC(=O)O)nc3sc4c(c3c2=O)CCCC4)cc1`, for which the “activation” value was inactive: -25.6%. In the case of `O=C(Nc1ccc(OCc2cc(=O)n3c4c(sc3n2)CCCC4)cc1)c1ccccc1`, the “activation” value is inactive: -8.76%. As to `CC1CCc2nc3ncn(Cc4ccccc4F)c(=O)c3cc2C1` (stereo not given), the “activation” value was inactive: -24.9%. `COc1ccc(NC(=O)CN(c2ccc(C)cc2)S(=O)(=O)c2cccc3nonc23)cc1OC`: the “activation” value was inactive: -12.7%. With `COc1ccc(N2CC(NC(=O)c3ccc4c(c3)OCO4)CC2=O)cc1` (stereo not given), the “activation” value was inactive: -10.6%. Next, `CCOc1ccc(NC(=O)CN(c2ccc(Cl)cc2C)S(=O)(=O)c2ccccc2)cc1`: inactive: -4.49%; `CCOc1ccc(OCC)c(NS(=O)(=O)c2c(C(=O)N3CCC(C)CC3)c(C)n(C)c2C)c1`: inactive: -25.9%.

Consider `CCCOc1c(Cl)cc(C(=O)N(Cc2cccc(OC)c2)C2CCS(=O)(=O)C2)cc1Cl` (stereo not given), for which the “activation” value is inactive: -17.8%.

As to `COc1ccc(NC(=O)Cn2cnc3c(oc4ccccc43)c2=O)cc1OC`, the “activation” value was inactive: -7.45%. The same measure for `CC(C)NC(=O)C1CCC(Cn2c(=O)c3sccc3n(CC(=O)NCc3ccccc3)c2=O)CC1` (stereo not given): inactive: -13.5%; for `CCOc1ccc(NC(=O)c2cnc(N3CCCCC3)c3ccccc23)cc1`: inactive: -6.9%; for `CN(c1ccccc1)S(=O)(=O)c1nnc(NC(=O)c2ccccc2)s1`: inactive: -17.6%. The same measure for `CC(C)n1cnc(S(=O)(=O)N2CCCC(C(=O)NCc3ccccc3Cl)C2)c1` (stereo not given): inactive: 3.87%. For `CCOC(=O)c1c(-c2ccccc2)csc1NC(=O)c1cc(-c2ccc(F)cc2)on1`, the “activation” value was inactive: -15%.

With `O=C(NCc1ccc2c(c1)OCO2)c1ccc2c(c1)N(Cc1ccccc1)C(=O)c1ccccc1S2=O` (stereo not given), the “activation” value is inactive: 29.6%.

`Cc1ccsc1CN(C(=O)c1oc2cc(Br)ccc2c1C)C1CCS(=O)(=O)C1` (stereo not given): the “activation” value is inactive: 2.48%. For the compound `Cc1cc(C(=O)Nc2ccc(C(C)C)cc2)c2c(C)nn(-c3ccccc3)c2n1`, the “activation” value was inactive: 6.87%.

With `COC(=O)Cn1c(=O)c2cccn2c2cccnc21`, the “activation” value is inactive: -10.3%. `CCOc1ccc(C(=O)c2c(N)c(-c3nc(-c4ccc5c(c4)OCO5)cs3)c3ccccn23)cc1`: the “activation” value is inactive: -6.07%. As to `COc1ccc(Cn2c(=O)c3oc4ccccc4c3n(Cc3cccc(C)c3)c2=O)cc1`, the “activation” value is inactive: -16.1%. As for `CCOc1ccccc1NC(=O)Cn1cc(C(=O)c2ccc(Cl)cc2)c(=O)c2ccc(C)nc21`, the “activation” value was inactive: -28.4%. The same measure for `COc1ccccc1CNc1ccc(-c2nc(-c3ccco3)no2)cc1[N+](=O)[O-]`: inactive: -1.5%; for `Cc1cccc2c(=O)cc(CSc3ccccc3NC(=O)c3cccc(F)c3)[nH]c12`: inactive: -16.2%; for `CN(C)CCCN(C(=O)c1ccc2c(c1)OCCO2)c1nc2ccccc2s1`: inactive: -28.1%. With `COc1cccc(CNC(=O)CSc2c3c(nc4cc(Cl)ccc24)CCCC3)c1`, the “activation” value is inactive: -10.1%.

With `CCCCOc1ccc(CNC(=O)c2cnc3sc(N4CCOCC4)nn3c2=O)cc1`, the “activation” value is inactive: -6.43%.
